Measured values taken from patent US11732029B2, “Methods and compositions for the treatment of wounds” (The University of Chicago, priority 2017, dated 2023).

T1: rhBMP-2 (Homo sapiens, UniProt P12643)
T1 construct: purchased R&D Systems; host or cells: CHO
T1 sequence (P12643 283-396): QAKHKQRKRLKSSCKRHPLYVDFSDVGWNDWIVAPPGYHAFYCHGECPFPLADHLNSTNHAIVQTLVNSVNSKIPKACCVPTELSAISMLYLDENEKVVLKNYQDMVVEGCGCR


How the values were obtained:
rhBMP-2 = target: T1, rhBMP-2; assay: Binding assay to rhBMP-2 (ELISA); conditions: 50 nM rhBMP-2 coated, 50 nM FabCol variant
Protocol: ELISA plates (NUNC MaxiSorp) were coated with 50 nM of recombinant human BMP-2 (CHO produced, R&D Systems, Minneapolis Minn., USA) overnight at room temperature. The plate was then blocked using 2% BSA for 2 h at room temperature, after which the plate was washed in PBST and incubated with 50 nM of the FabCol-FgHBD conjugates, FabCol-LamLG4 or FabCol-p(FgHBD) recombinant proteins diluted in PBS-0.05% Tween (PBST)+0.1% BSA.

[1] = tested on: PlGF-2-engineered growth factors; assay: Binding assay to engineered super-affinity growth factors (ELISA); conditions: 100 nM GF coated, 100 nM FabCol variant
Protocol: Engineered super-affinity growth factors and mouse wild-type VEGF-C were produced as described in Martino et al., Science, 2014. Other wild-type recombinant human growth factors were purchased from R&D Systems or Peprotech (Rocky Hill N.J., USA). Growth factors were coated on medium-binding plates (Greiner) at a concentration of 100 nM for 1 h at 37° C. Plates were then blocked with 2% BSA in PBS for 2 h at room temperature. Then, the FabCol variants (100 nM) were diluted in 1% BSA and incubated in the wells for 1 h at room temperature. The plate was washed four times in PB ST and an HRP-anti-human Fab antibody was used to detect bound FabCol variants. Plate absorbance was read as described above.

| Molecule | binding to rhBMP-2 (rhBMP-2) | binding to PlGF-2-engineered growth factors vs non-engineered wild-type growth factors [1] |
| --- | --- | --- |
| FabCol-p(FgHBD): fusion: 3 copies of FgHBD at C-termini of both light and heavy chains of FabCol; SEQ ID NO: 72, 73 (protein) light: EIVLTQSPGTLSLSPGERATLSCRASQSVSSSYLAWYQQKPGQAPRLLIYGASSRATGIPDRFSGSGSGTDFTLTISRLEPEDFAVYYCQQAIGFPQTFGQGTKVEIKRTVAAPSVFIFPPSDEQLKSGTASVVCLLNNFYPREAKVQWKVDNALQSGNSQESVTEQDSKDSTYSLSSTLTLSKADYEKHKVYACEVTHQGLSSPVTKSFNRGECGAGGGSGGGHRPLDKKREEAPSLRPAPPPISGGGYRARPAKAAATQKKVERKAPDAGGGSGGGSGGGHRPLDKKREEAPSLRPAPPPISGGGYRARPAKAAATQKKVERKAPDAGGGSGGGSGGGHRPLDKKREEAPSLRPAPPPISGGGYRARPAKAAATQKKVERKAPDAGGGT heavy: [letters of about 100 residues not shown]TLAAFDYWGQGTLVTVSSASTKGPSVFPLAPSSKSTSGGTAALGCLVKDYFPEPVTVSWNSGALTSGVHTFPAVLQSSGLYSLSSVVTVPSSSLGTQTYICNVNHKPSNTKVDKRVEPKSCGSGGGSGGGHRPLDKKREEAPSLRPAPPPISGGGYRARPAKAAATQKKVERKAPDAGGGSGGGSGGGHRPLDKKREEAPSLRPAPPPISGGGYRARPAKAAATQKKVERKAPDAGGGSGGGSGGGHRPLDKKREEAPSLRPAPPPISGGGYRARPAKAAATQKKVERKAPDAGGTG | strongly bound | – |
| FabCol-LamLG4: fusion: LamLG4 domain at C-terminus of FabCol heavy chain via glycine-serine linker; SEQ ID NO: 71 (protein) light: EIVLTQSPGTLSLSPGERATLSCRASQSVSSSYLAWYQQKPGQAPRLLIYGASSRATGIPDRFSGSGSGTDFTLTISRLEPEDFAVYYCQQAIGFPQTFGQGTKVEIKRTVAAPSVFIFPPSDEQLKSGTASVVCLLNNFYPREAKVQWKVDNALQSGNSQESVTEQDSKDSTYSLSSTLTLSKADYEKHKVYACEVTHQGLSSPVTKSFNRGEC heavy: [letters of about 100 residues not shown]TLAAFDYWGQGTLVTVSSASTKGPSVFPLAPSSKSTSGGTAALGCLVKDYFPEPVTVSWNSGALTSGVHTFPAVLQSSGLYSLSSVVTVPSSSLGTQTYICNVNHKPSNTKVDKRVEPKSCGSGGGSGGSLNKPPFLMLLKGSTRFNKTKTFRINQLLQDTPVASPRSVKVWQDACSPLPKTQANHGALQFGDIPTSHLLFKLPQELLKPRSQFAVDMQTTSSRGLVFHTGTKNSFMALYLSKGRLVFALGTDGKKLRIKSKEKCNDGKWHTVVFGHDGEKGRLVVDGLRAREGSLPGNSTISIRAPVYLGSPPSGKPKSLPTNSFVGCLKNFQLDSKPLYTPSSSFGVSSCTG | strongly bound | significantly higher |
